# Source: PubChem BioAssay AID624296 (National Center for Advancing Translational Sciences (NCATS), 2012)
# Screen size: about 350,000 compounds; about 9,900 (2.8%) were called active. The shares of active, inactive and inconclusive entries below differ from those in the screen. The call rests on the fitted dose curve; in most records, active means well fitted activation curve with a large enough effect; inconclusive means small, poorly fitted or top-dose-only effect; inactive means no such curve, though single readings can be large or run the other way. Potencies of inconclusive entries are left out as doubtful fits.
# Assay: A quantitative high throughput screen for small molecules that induce DNA re-replication in MCF 10a normal breast cells. Further: nearly all actives have a fitted effect of over 50% in size.
# Settings: MCF 10A DNA re-replication, Hoechst nuclear intensity, 48 h; series mostly up to 46.1 µM
# Potency means the concentration at half of the fitted maximal effect; tags describe the fitted curve by direction and shape.
row,Compound,Potency
1,O=C(CSc1nnc(CNC(=O)c2ccco2)o1)Nc1ccc(Cl)cc1,"inconclusive [activator, single point]"
2,CCc1nnc(NC(=O)CSc2nnc(-c3cccnc3)n2C)s1,inactive
3,COc1ccc2cc(C(=O)N3CCc4ccccc43)[nH]c2c1,"inconclusive [activator, partial curve, poor fit]"
4,Cn1cccc1CNC(=S)Nc1ccccc1F,inactive
5,COc1ccc(NS(=O)(=O)c2cc([N+](=O)[O-])ccc2NN=Cc2ccccc2OCC(=O)O)cc1,active: 20.6 µM
6,O=C(c1cc(COc2ccc(F)cc2F)on1)N1CC2C[C@@H]3CC1C[C@H](C2)C3,"inconclusive [activator, partial curve, poor fit]"
7,CC(OC(=O)CCSc1ccccc1)C(=O)Nc1ccc(S(N)(=O)=O)cc1 (centres undefined),"inconclusive [activator, single point]"
8,C=CCn1c(SCC(=O)NC2(C#N)CCCCC2)nnc1-c1ccncc1,"inconclusive [activator, full curve, poor fit]"
9,Cc1cc(C)n(-c2nc(NCC(C)O)c3c4c(sc3n2)COC(C)(C)C4)n1 (centres undefined),inactive
10,Cc1ccc(Nc2cc(C)nc3ccccc23)c(C)c1,inactive
11,COc1cc(NC(=O)c2cncc(-c3ccc(C#N)cc3)c2)cc(C(=O)Nc2cccc(C(F)(F)F)c2)c1,active: 13 µM
12,COc1ccc([N+](=O)[O-])c(S(=O)(=O)c2ccc(Cl)cc2)n1,active: 3.66 µM
13,CCOC(=O)c1c(CC(C)C)csc1NC(=O)C(C)C,"inconclusive [activator, single point]"
14,CCN(/N=C/c1ccc(N(C)C)cc1)c1nc2ccccc2[nH]1,active: 5.8 µM
15,COc1ccc(NC(=O)COc2ccccc2Cc2ccccc2)cc1S(=O)(=O)N1CCOCC1,inactive
16,Cc1ccc(NS(=O)(=O)c2ccc3c(c2)NC(=O)CO3)cc1Cl,inactive
17,COc1ccc(NC(=O)COc2nc3ccccc3nc2N2CCOCC2)c(OC)c1,inactive
18,CC[C@H](c1ccc(O)cc1)[C@@H](CC)c1ccc(O)cc1,active: 11.4 µM
19,CN1CC[C@]2(CCN3CCc4c(oc5ccccc45)[C@@H]3C2)N(C)C1=O,inactive
20,Cc1csc(SCC(=O)NCc2cccc(Cl)c2)n1,"inconclusive [activator, single point]"
21,CCn1cc(C(=O)NCC(OC)OC)c(=O)c2cc(S(=O)(=O)N3CCC(C)CC3)ccc21,"inconclusive [activator, single point]"
22,O=C1CCc2cc(S(=O)(=O)NC3CCCCC3)cc3c2N1CC3,"inconclusive [activator, single point]"
23,CCCN(CCC)C(=O)CC(c1ccccc1)c1cc(Br)ccc1O (centres undefined),"inconclusive [activator, partial curve, poor fit]"

row,Compound,Potency
1,CCOc1cc(N2CCOCC2)c(OCC)cc1NC(=O)c1ccc(OC)cc1,"inconclusive [activator, partial curve, poor fit]"
2,COc1ccc(NC(=O)NC(=O)c2cc(OCC(F)(F)F)ccc2OCC(F)(F)F)cc1,"inconclusive [activator, partial curve, poor fit]"
3,CCCOc1ccc(-c2nc(N3CCN(C)CC3)c3ccccc3n2)cc1,"inconclusive [activator, full curve]"
4,O=C(CN1CCN(CCN2C(=O)c3cccc4cccc(c34)C2=O)CC1)c1ccc(F)cc1,"inconclusive [activator, single point]"
5,CCOC(=O)c1nn(-c2cccc(Cl)c2)c2nc(CC(C)C)c(C#N)c(=O)n12,active: 23.1 µM
6,O=C(OCCN1C(=O)c2ccccc2C1=O)c1cc(S(=O)(=O)N2CCOCC2)ccc1Cl,inactive
7,Cc1nc(N2CCCCC2)sc1C(=O)c1ccc(SCCO)c([N+](=O)[O-])c1,"inconclusive [activator, single point]"
8,Cc1c(C(=O)Nc2ccc3c(c2)OCCO3)sc2ncnc(N3CCCCC3C)c12 (centres undefined),"inconclusive [activator, partial curve, poor fit]"
9,CN(C)/C=N/c1c(C#N)cnn1-c1ccccc1,"inconclusive [activator, single point]"
10,COc1ccc(CCC(C)N2CCC(CO)(Cc3ccccc3)CC2)cc1 (centres undefined),"inconclusive [activator, single point]"
11,COc1ccc(C(c2nnnn2C2CCCC2)N2CCN(c3ccccc3)CC2)cc1 (centres undefined),inactive
12,CCOc1ccccc1OCCC(=O)N1CCN(S(=O)(=O)c2ccccc2[N+](=O)[O-])CC1,"inconclusive [activator, single point]"
13,Cc1cccc(N=C2CCCC2C(=O)Nc2cccc(C)c2C)c1C (centres undefined),inactive
14,CC(=O)N1CCN(c2c(F)c(F)c(C(F)(F)F)c(F)c2F)CC1,inactive
15,COc1cc(C2C(C(=O)c3ccc(C)o3)=C(O)C(=O)N2CCN2CCOCC2)ccc1OCCC(C)C (centres undefined),inactive
16,O=C(NC1CC1)c1sc2ccccc2c1Cl,inactive
17,O=C(O)c1ccccc1N/N=C/c1cc(Br)cc(Br)c1O,"inconclusive [activator, full curve, poor fit]"
18,CCOC(=O)C(=O)c1c(-c2ccc(C)cc2)nc2ccccn12,"inconclusive [activator, partial curve, poor fit]"
19,COc1nc(NC2OC(CO)C(O)C(O)C2O)c(N)c(=O)[nH]1 (centres undefined),inactive
20,Cc1ccc(F)cc1NC(=O)C1CCCN(c2ncccn2)C1 (centres undefined),"inconclusive [activator, single point]"
21,COc1ccc(-c2ccc(C#N)c(SCC(=O)NCc3ccco3)n2)cc1OC,"inconclusive [activator, single point]"
22,COc1nc(N/N=C/c2ccc(-c3ccccc3[N+](=O)[O-])o2)nc(N2CCOCC2)n1,active: 10.3 µM
23,N#CCC(=O)NNC(=S)Nc1ccccc1C(F)(F)F,"inconclusive [activator, single point]"

row,Compound,Potency
1,Cc1nc2c(C)cccc2cc1C(=O)N/N=C/c1ccc(O)cc1,"inconclusive [activator, full curve, poor fit]"
2,CCCS(=O)(=O)c1nc(S(=O)(=O)c2ccc(C)cc2)c(N2CCC(C(N)=O)CC2)s1,inactive
3,COc1ccc(CN(C(=O)c2ccccc2OC)C2CCS(=O)(=O)C2)cc1 (centres undefined),"inconclusive [activator, partial curve, poor fit]"
4,CCCn1cc(NC(=O)c2cc3n(n2)C(C(F)(F)F)CC(c2ccccc2)N3)cn1 (centres undefined),"inconclusive [activator, partial curve, poor fit]"
5,O=C(CC1SCCNC1=O)Nc1cccc(Cl)c1 (centres undefined),"inconclusive [activator, partial curve, poor fit]"
6,CCOC(=O)C1=CN(Cc2ccco2)S(=O)(=O)N(C)C1c1ccc2ccccc2c1 (centres undefined),"inconclusive [activator, partial curve, poor fit]"
7,O=C(COc1cccc2cccnc12)N/N=C/c1cccn1-c1ccc(F)cc1,"inconclusive [activator, single point]"
8,CCOc1ccc(NC(=O)CSc2nc3ccccc3nc2N2CCCC2)cc1,"inconclusive [activator, partial curve, poor fit]"
9,CN1CC(=O)N(CC(=O)Nc2cc(Cl)cc(Cl)c2)C1=O,"inconclusive [activator, full curve, poor fit]"
10,Clc1ccc(SCc2csc(N3CCOCC3)n2)cc1,inactive
11,C/C(=N\N=c1/sc2ccccc2n1C)c1ccccn1,"inconclusive [activator, partial curve, poor fit]"
12,O=C(CN1CCC(C(=O)c2ccc3c(c2)OCCO3)CC1)Nc1ccccc1C(F)(F)F,active: 16.4 µM
13,CC(C)(C)NC(=O)/C=C/c1cccs1,"inconclusive [activator, single point]"
14,CCCCN(CC)c1nc(-c2ccncc2)nc2ccccc12,"inconclusive [activator, single point]"
15,CC(NC(=O)c1cc(-c2cccs2)on1)c1ccccc1 (centres undefined),"inconclusive [activator, partial curve, poor fit]"
16,Cc1nnc(SCCn2c(Br)nc3c2c(=O)[nH]c(=O)n3C)s1,"inconclusive [activator, full curve, poor fit]"
17,CCCC(=O)Nc1ccc(S(=O)(=O)N2CCC(c3nc4ccccc4[nH]3)CC2)cc1,inactive
18,O=[N+]([O-])c1cc(Cl)c(O)c2ncccc12,"inconclusive [activator, full curve, poor fit]"
19,COc1ccc(C(=O)N2CC3(CC(c4cccc([N+](=O)[O-])c4)=NO3)C[C@H]2C(=O)NCC(N)=O)cc1 (some centres undefined),"inconclusive [activator, full curve, poor fit]"
20,COc1cccc(N2CCN(C(=O)c3[nH]c(C)c(C(C)=O)c3C)CC2)c1,"inconclusive [activator, partial curve, poor fit]"
21,CC1(C)CC2CC(C)(CN2S(=O)(=O)c2ccc(F)cc2F)C1 (centres undefined),inactive
22,CCCOc1ccc2ccccc2c1/C=C1\SC(=O)NC1=O,"inconclusive [activator, partial curve, poor fit]"
23,Cc1cccc(NC(=O)c2sc3nc4c(c(-c5cccs5)c3c2N)CN(C)CC4)c1,active: 16.4 µM
